Results on 84 variants are retold here after a collection of fitness landscapes (doi:10.1016/j.celrep.2020.107928).

In all, about 81,000 sequences were measured (“one-hybrid fitness for binding parS DNA”: median about -0.17, highest 2% from about 0.51 on). Some of the results follow.

B1: Caulobacter ParB omega fusion; a variant is named by its letters at X, in order, B8GW30 (parent)
chain: MESVVVGEPGMSEGRRGLGRGLSALLGEVDAAPAQAPGEQLGGSREAPIEILQRNPDQPRRTFREEDLEDLSNSIREKGVLQPILVRPSPDTAGEYQIVAGERAWRAAQRAGLKTVPIMVRELDDLAVLEIGIIENVQRADLNVLEEALSYKVLMEKFERTQENIAQTIGKSXSHVANXMRLLXLPDEVQSYLVSGELTAXHARAIAAAADPVALAKQIIEGGLSVRETEALARKAPNLSAGKSKGGRPPRVKDTDTQALESDLSSVLGLDVSIDHRGSTGTLTITYATLEQLDDLCNRLTRGI

The variants in this assay derive from B1. The assay can be described thus: one-hybrid fitness for binding parS DNA (scaled: cognate 1, non-cognate 0); higher = stronger binding. As to conditions: with parS DNA site. Put shortly: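 Values were rescaled so that cognate is 1 and non-cognate is 0. Each is a fitness, the log change in a variant's read ratio to wild type from Illumina reads of plasmids before and after selection, with three replicate libraries pooled and variants under 10 reads dropped. Selection of the Caulobacter ParB libraries, four specificity codons randomised, used E. coli USO with a HIS3 reporter, site 19 bp from the promoter, on M9-minus-histidine with 0.1 mM IPTG and 5 mM 3-AT for 48 hours at 37°C.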
Consider TMKS, for which the “one-hybrid fitness for binding parS DNA” value is no more than 0.2.
In the case of QSSQ it was no more than 0.2.
In the case of SILV it was no more than 0.2.
With AKHS, the “one-hybrid fitness for binding parS DNA” value was no more than 0.2.
In the case of NAIR it was no more than 0.2; in that of PRFD, no more than 0.2; in that of PTCN, no more than 0.2.
Consider FGVR, for which the “one-hybrid fitness for binding parS DNA” value is no more than 0.2.
Next, PSST: no more than 0.2; NTLY: no more than 0.2.
In the case of SFRP it was 0.209; in that of NGPW, no more than 0.2; in that of STSQ, no more than 0.2.
Next, ANVS: no more than 0.2.
EGNT: the “one-hybrid fitness for binding parS DNA” value is no more than 0.2.
In the case of KDCT it was no more than 0.2; in that of DPAV, no more than 0.2.
Next, SEMH: 0.329; AFRF: no more than 0.2; VVLF: no more than 0.2.
On to RHFN, for which the “one-hybrid fitness for binding parS DNA” value came out at 0.319.
As to RWTS, the “one-hybrid fitness for binding parS DNA” value turned out to be 0.956.
Next, QTKV: no more than 0.2.
In the case of RHQW it was no more than 0.2; in that of ENPC, no more than 0.2.
Next, QCWI: no more than 0.2.
Regarding RLEG, the “one-hybrid fitness for binding parS DNA” value is 0.925.
As to KYKT, the “one-hybrid fitness for binding parS DNA” value is no more than 0.2.
Next, IEEG: no more than 0.2; QPTV: no more than 0.2.
MGNE: the “one-hybrid fitness for binding parS DNA” value is no more than 0.2.
Next, NNDT: no more than 0.2; HETT: no more than 0.2; LMCS: no more than 0.2.
Regarding AWAN, the “one-hybrid fitness for binding parS DNA” value is no more than 0.2.
As for EFEV, the “one-hybrid fitness for binding parS DNA” value is no more than 0.2.
Next, TYDG: no more than 0.2; REPN: no more than 0.2.
In the case of VTWT it was no more than 0.2.
Next, YCPT: no more than 0.2; QIKI: no more than 0.2; KYRE: no more than 0.2.
For RMVH, the “one-hybrid fitness for binding parS DNA” value was no more than 0.2.
Next, PKTK: no more than 0.2.
As to TEQG, the “one-hybrid fitness for binding parS DNA” value was no more than 0.2.
In the case of LLVF it was no more than 0.2; in that of GLNN, no more than 0.2.
Next, TKDT: no more than 0.2; FKMI: no more than 0.2; RLYP: no more than 0.2.
Next, VIEF: no more than 0.2; QIYR: no more than 0.2.
As for MFCV, the “one-hybrid fitness for binding parS DNA” value is no more than 0.2.
With AKCT, the “one-hybrid fitness for binding parS DNA” value is no more than 0.2.
In the case of MCGC it was no more than 0.2; in that of MILG, no more than 0.2; in that of TRNA, no more than 0.2.
In the case of QSSH, the “one-hybrid fitness for binding parS DNA” value was no more than 0.2.
In the case of ERVA it was no more than 0.2.
Next, VDQT: no more than 0.2.
In the case of KKHR it was no more than 0.2; in that of PLPH, no more than 0.2.
On to ALRE, for which the “one-hybrid fitness for binding parS DNA” value was no more than 0.2.
On to ICIN, for which the “one-hybrid fitness for binding parS DNA” value was no more than 0.2.
In the case of NHEG it was no more than 0.2; in that of ICKF, no more than 0.2; in that of SSDM, no more than 0.2.
In the case of DYDR it was no more than 0.2; in that of KHET, no more than 0.2.
In the case of RLYS it was 1.04; in that of QNRK, no more than 0.2.
Turning to RAYK, the “one-hybrid fitness for binding parS DNA” value is no more than 0.2.
In the case of ELRA it was no more than 0.2; in that of LSGS, no more than 0.2; in that of IMKA, no more than 0.2.
In the case of QASK it was no more than 0.2.
In the case of VPIS it was no more than 0.2.
On to PICV, for which the “one-hybrid fitness for binding parS DNA” value was no more than 0.2.
In the case of LFLV it was no more than 0.2; in that of NVRI, no more than 0.2; in that of CDSV, no more than 0.2.
In the case of NKHT it was no more than 0.2; in that of VNNG, no more than 0.2.
In the case of SYNW it was no more than 0.2.
